# In PubChem BioAssay AID1768 (National Center for Advancing Translational Sciences (NCATS), 2009):
# Screen size: about 270,000 compounds; about 620 (0.23%) were called active. Inconclusive results, whose numbers are uncertain, are shown with a selection of clear calls. Calls follow the shape of the dose curve; as a rule, active = well fitted inhibition curve with a large enough effect in the polarisation, with a control signal flat (not every such curve was filed as active); inconclusive = small, poorly fitted or top-dose-only effect, or effect the other way, or a change in a side signal; inactive = no such curve, though single readings can be large or run the other way; the % refers to the polarisation. Potencies beside an inconclusive call are fits to weak or partial responses and may not hold up. A note “side channel” means that the fit belongs to a control or component signal, not to the main read-out.
# Target: Menin (Homo sapiens) (UniProt O00255)
# Chain of UniProt O00255 (O00255 whole entry, looked up): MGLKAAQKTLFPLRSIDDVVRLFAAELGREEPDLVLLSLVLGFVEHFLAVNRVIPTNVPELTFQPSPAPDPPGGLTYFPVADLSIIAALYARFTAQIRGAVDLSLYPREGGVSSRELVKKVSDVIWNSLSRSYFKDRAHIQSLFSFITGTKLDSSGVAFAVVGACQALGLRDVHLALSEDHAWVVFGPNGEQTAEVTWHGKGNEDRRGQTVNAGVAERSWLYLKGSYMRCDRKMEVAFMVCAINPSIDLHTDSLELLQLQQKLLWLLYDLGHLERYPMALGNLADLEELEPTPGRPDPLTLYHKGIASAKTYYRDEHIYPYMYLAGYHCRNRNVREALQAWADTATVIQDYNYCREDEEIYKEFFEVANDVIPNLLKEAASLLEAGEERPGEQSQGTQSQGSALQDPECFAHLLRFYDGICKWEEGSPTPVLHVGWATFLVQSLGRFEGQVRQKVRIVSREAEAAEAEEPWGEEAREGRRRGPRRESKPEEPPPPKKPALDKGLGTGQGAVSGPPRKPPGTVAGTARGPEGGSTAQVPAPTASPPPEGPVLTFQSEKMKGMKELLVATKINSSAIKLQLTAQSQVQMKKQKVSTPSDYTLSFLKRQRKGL
# Test: qHTS Assay for Inhibitors Targeting the Menin-MLL Interaction in MLL Related Leukemias: Competition With Texas Red Labeled MLL-derived Mutant Peptide; as to FP activity change, negative = inhibition: % of control where 0% means no effect
# Details: fluorescence polarization; FP activity change, negative = inhibition: at 61.6 µM (top of the series)
# Potency is read from the fitted curve at half-maximal effect; tags tell the direction and shape of the fitted curve or compound fluorescence and quenching.
Compound,Potency,"FP activity change, negative = inhibition"
COc1ccc(Sc2nnc(-c3ccccc3)cc2C#N)cc1,"inconclusive: 3.16 µM [inhibitor, partial curve, poor fit]",–
COCCNC(=O)c1ccc2c(c1)C(=O)c1ccccc1-2,–,inactive: -0.983%
NC(Cc1cc(I)c(Oc2cc(I)c(O)c(I)c2)c(I)c1)C(=O)O (stereo unspecified),"inconclusive: 10 µM [quencher, side channel, partial curve]",–
CCN(CC)c1ccc2nc3c4ccccc4c(=O)cc-3oc2c1,"inconclusive: 1 µM [fluorescent, side channel, full curve]",–
COc1ccc(NC(=O)Nc2ccccc2SC)c(OC)c1,"inconclusive: 31.6 µM [inhibitor, partial curve]",–
N#Cc1c(-c2ccco2)cc(C2CC2)nc1SCC(=O)c1ccccc1,"inconclusive: 11.2 µM [quencher, side channel, partial curve]",–
COc1ccc(S(=O)(=O)C(C#N)c2nc3ccccc3nc2N2CCCCC2)cc1 (stereo unspecified),"inconclusive: 20 µM [quencher, side channel, partial curve]",–
COc1ccc(C(=O)NNC(=S)NC(=O)c2cc(-c3ccccc3)nc3ccccc23)cc1,"inconclusive: 28.2 µM [quencher, side channel, single point]",–
Nc1c(C(=O)Nc2ccccc2)sc2nc(-c3ccco3)ccc12,"inconclusive: 12.6 µM [quencher, side channel, partial curve]",–
CC(C)C[C@@H](CC(=O)N[C@@H](CCCN)CC(=O)N[C@@H]1CCCC[C@H]1C(=O)N[C@H](CC(=O)N[C@@H](CCC(=O)O)CC(=O)O)CC(C)C)NC(=O)[C@@H]1CCCC[C@H]1N,–,inactive: 1.87%
CCOc1c(Cl)cc(CNCC(O)c2ccccc2)cc1OC (stereo unspecified),"inconclusive: 14.1 µM [fluorescent, side channel, partial curve]",–
CCO[C@@H]1OC(C(=O)N2CCCCCCC2)=C[C@H](c2cn(C(C)=O)c3ccccc23)[C@H]1CCCO,"inconclusive: 2.51 µM [fluorescent, side channel, full curve]",–
O=C(c1ccc2c(=O)n(Cc3ccco3)c(=S)[nH]c2c1)N1CCN(Cc2ccccc2)CC1,–,inactive: -10.2%
COc1cccc(OC)c1C1=Nn2c(nnc2-c2ccccc2O)SC1,"inconclusive: 22.4 µM [quencher, side channel, single point]",–
Cc1ccc(-n2nnc3c(=O)n(CC(=O)c4ccccc4)cnc32)cc1,"inconclusive: 39.8 µM [inhibitor, single point]",–
CCOc1ccc(-n2cc(-c3ccccc3)c3c(=S)nc[nH]c32)cc1,"inconclusive: 39.8 µM [quencher, side channel, partial curve, poor fit]",–
Cc1ccc(C(C(=O)NC2CCCCC2)N(C(=O)c2csnn2)c2ccccc2F)o1 (stereo unspecified),"inconclusive: 1 µM [inhibitor, full curve, poor fit]",–
CSCc1c(C(=O)Nc2ccc(N3CCOCC3)cc2)oc2ccccc12,"inconclusive: 15.8 µM [quencher, side channel, partial curve]",–
CC(=O)OC1CC[C@@]2(C)C3CC[C@@]4(C)C(CC5O[C@@]6(CCC(C)CO6)C(C)C54)C3CC[C@@H]2C1 (stereo partly specified),–,inactive: 1.6%

Compound,Potency,"FP activity change, negative = inhibition"
CC(C)(C)NC(=O)C(=O)N/N=C/c1cccs1,"inconclusive: 3.98 µM [inhibitor, single point]",–
O=[N+]([O-])C1=CC=C2C(=NC3(CCCCC3)N2O)C1=NCCc1ccccc1,"inconclusive: 22.4 µM [quencher, side channel, partial curve]",–
OC(CNCC1COc2ccccc2O1)COc1ccc(Cl)cc1 (stereo unspecified),"inconclusive: 3.16 µM [inhibitor, single point]",–
Cc1oc2c(CN3CCCCC3)c(O)ccc2c(=O)c1-c1ccc(Br)cc1,"inconclusive: 14.1 µM [inhibitor, partial curve]",–
O=C(N/N=C/c1ccc(O)cc1O)c1ccc(CN2C(=O)c3cccc4cccc2c34)cc1,"inconclusive: 6.31 µM [quencher, side channel, full curve]",–
Cc1sc2nc(-c3cccs3)nc(N3CCCN(C)CC3)c2c1C,"inconclusive: 20 µM [inhibitor, partial curve, poor fit]",–
O=C(Nc1ccccc1)Nc1cc(OCC(F)(F)F)cc(OCC(F)(F)F)c1,"inconclusive: 3.55 µM [quencher, side channel, single point]",–
Cc1cc(=O)oc2cc(OCC(=O)N3CCCC(C)C3)ccc12 (stereo unspecified),–,inactive: -2.75%
O=Nc1[nH]c(=O)c(/C=C(\O)c2ccccc2)nc1NO,"inconclusive: 12.6 µM [quencher, side channel, partial curve]",–
O=C1C(NS(=O)(=O)c2ccc(Cl)cc2)=C(N2CCCCC2)C(=O)c2ccccc21,"inconclusive: 25.1 µM [inhibitor, single point]",–
Cc1ccc(-c2cc3nc(C)cc(NCc4ccco4)n3n2)cc1,–,inactive: 13.3%
Cc1cc2nc(-c3ccc(SCc4ccccc4C#N)nc3)[nH]c2cc1C,"inconclusive: 31.6 µM [quencher, side channel, single point]",–
CC(C)c1ccc2[nH]c3nc(SCC(=O)NC4CC4)nnc3c2c1,"inconclusive: 22.4 µM [fluorescent, side channel, single point]",–
CCN(CC(=O)NC(C)(C)C)Cc1cc(=O)n2c(-c3ccccc3)csc2n1,"inconclusive: 11.2 µM [quencher, side channel, single point]",–
CC1CCCCN1S(=O)(=O)c1ccc(C(=O)N(CCCN(C)C)c2nc3ccc(Br)cc3s2)cc1 (stereo unspecified),"inconclusive: 3.98 µM [inhibitor, partial curve]",–
CN(C)c1ncc2nc(-c3ccc(F)cc3)c(=O)n(C[C@H]3CCCO3)c2n1,–,inactive: -1.21%
C/C(=N\NC(=O)c1ccc([N+](=O)[O-])cc1)c1cc2ccccc2oc1=O,"inconclusive: 25.1 µM [quencher, side channel, single point]",–
COc1ccc(CCNC(=O)COC(=O)/C=C/c2cccs2)cc1,"inconclusive: 10 µM [fluorescent, side channel, partial curve]",–
COc1ccc2nc(NC(=O)c3cccnc3SC)sc2c1,"inconclusive: 17.8 µM [quencher, side channel, single point]",–

Compound,Potency,"FP activity change, negative = inhibition"
COc1cccc(CNc2ccccc2O)c1OCc1ccccc1F,"inconclusive: 12.6 µM [quencher, side channel, partial curve]",–
O=C(O)C(Cc1ccccc1)N1C(=O)/C(=C/c2cccs2)SC1=S (stereo unspecified),"inconclusive: 31.6 µM [quencher, side channel, single point]",–
CC(C)(C)n1nc2c(c1NC(=O)Cc1ccc(F)cc1)CS(=O)(=O)C2,"inconclusive: 2.51 µM [inhibitor, full curve, poor fit]",–
Cc1cccc(C2c3[nH]c4ccccc4c3CCN2C(=O)c2cc(-c3cccn3C)n[nH]2)n1 (stereo unspecified),"inconclusive: 10 µM [inhibitor, partial curve]",–
COc1ccc(NC(C)C(=O)N/N=C/c2ccc([N+](=O)[O-])s2)cc1 (stereo unspecified),"inconclusive: 35.5 µM [quencher, side channel, single point]",–
CCCCOc1nc2ccccc2nc1NS(=O)(=O)c1ccc(F)cc1,"inconclusive: 11.2 µM [quencher, partial curve]",–
O=C(/C=C/c1ccc(Cl)c([N+](=O)[O-])c1)Nc1ccc(NC(=O)c2ccco2)cc1,"inconclusive: 39.8 µM [quencher, side channel, partial curve, poor fit]",–
COc1ccc(OC)c(S(=O)(=O)ON2C(=O)c3ccccc3C2=O)c1,"inconclusive: 39.8 µM [inhibitor, single point]",–
Cc1cc2n(n1)C(c1ccsc1)Nc1ccccc1-2 (stereo unspecified),"inconclusive: 25.1 µM [quencher, side channel, single point]",–
CSc1ccc(/C=N/N(C)S(=O)(=O)c2ccc(C)cc2)cc1,"inconclusive: 31.6 µM [quencher, side channel, partial curve]",–
Cc1ccc(C(=O)N(c2ccccc2)C2CC(C)N(C(=O)c3ccco3)c3ccccc32)cc1 (stereo unspecified),"inconclusive: 3.55 µM [fluorescent, side channel, partial curve]",–
CCOC(=O)C1(CCCc2ccccc2)CCN(C(=O)CSC)CC1,"inconclusive: 11.2 µM [fluorescent, side channel, partial curve]",–
CC1CCC(N2CCN(C(=O)c3ccccc3F)CC2)CC1 (stereo unspecified),"inconclusive: 20 µM [inhibitor, partial curve]",–
Cc1nc2ccc([N+](=O)[O-])cc2c(=O)n1Cc1cccc(F)c1,"inconclusive: 17.8 µM [quencher, side channel, partial curve]",–
CCOC(=O)/C(C#N)=C1/C=C(C)NC(c2ccccc2O)=N1,"inconclusive: 20 µM [quencher, side channel, partial curve]",–
COc1cccc(CN2CCN(C(=O)Nc3ccc([N+](=O)[O-])cc3)CC2)c1,"inconclusive: 11.2 µM [quencher, side channel, partial curve]",–
CCOC(=O)c1c(C)oc2c1c(C(c1ccccc1)N1CCOCC1)c(O)c1ccccc12 (stereo unspecified),"inconclusive: 39.8 µM [quencher, side channel, single point]",–
O=C(O)c1ccccc1NC(=O)C(Cc1ccccc1)N1C(=O)c2ccccc2C1=O (stereo unspecified),"inconclusive: 28.2 µM [quencher, side channel, single point]",–
